From paper PMC4336329 (PLoS ONE, 2015) come the findings set out here.

Screen size: about 310,000 compounds; about 2,200 (0.71%) showed an effect of 50% or more. The effect is printed as a negative number. Some of the results follow.

Sequence of human ether-à-go-go-related gene (hERG) potassium channel (Q12809 whole entry, looked up): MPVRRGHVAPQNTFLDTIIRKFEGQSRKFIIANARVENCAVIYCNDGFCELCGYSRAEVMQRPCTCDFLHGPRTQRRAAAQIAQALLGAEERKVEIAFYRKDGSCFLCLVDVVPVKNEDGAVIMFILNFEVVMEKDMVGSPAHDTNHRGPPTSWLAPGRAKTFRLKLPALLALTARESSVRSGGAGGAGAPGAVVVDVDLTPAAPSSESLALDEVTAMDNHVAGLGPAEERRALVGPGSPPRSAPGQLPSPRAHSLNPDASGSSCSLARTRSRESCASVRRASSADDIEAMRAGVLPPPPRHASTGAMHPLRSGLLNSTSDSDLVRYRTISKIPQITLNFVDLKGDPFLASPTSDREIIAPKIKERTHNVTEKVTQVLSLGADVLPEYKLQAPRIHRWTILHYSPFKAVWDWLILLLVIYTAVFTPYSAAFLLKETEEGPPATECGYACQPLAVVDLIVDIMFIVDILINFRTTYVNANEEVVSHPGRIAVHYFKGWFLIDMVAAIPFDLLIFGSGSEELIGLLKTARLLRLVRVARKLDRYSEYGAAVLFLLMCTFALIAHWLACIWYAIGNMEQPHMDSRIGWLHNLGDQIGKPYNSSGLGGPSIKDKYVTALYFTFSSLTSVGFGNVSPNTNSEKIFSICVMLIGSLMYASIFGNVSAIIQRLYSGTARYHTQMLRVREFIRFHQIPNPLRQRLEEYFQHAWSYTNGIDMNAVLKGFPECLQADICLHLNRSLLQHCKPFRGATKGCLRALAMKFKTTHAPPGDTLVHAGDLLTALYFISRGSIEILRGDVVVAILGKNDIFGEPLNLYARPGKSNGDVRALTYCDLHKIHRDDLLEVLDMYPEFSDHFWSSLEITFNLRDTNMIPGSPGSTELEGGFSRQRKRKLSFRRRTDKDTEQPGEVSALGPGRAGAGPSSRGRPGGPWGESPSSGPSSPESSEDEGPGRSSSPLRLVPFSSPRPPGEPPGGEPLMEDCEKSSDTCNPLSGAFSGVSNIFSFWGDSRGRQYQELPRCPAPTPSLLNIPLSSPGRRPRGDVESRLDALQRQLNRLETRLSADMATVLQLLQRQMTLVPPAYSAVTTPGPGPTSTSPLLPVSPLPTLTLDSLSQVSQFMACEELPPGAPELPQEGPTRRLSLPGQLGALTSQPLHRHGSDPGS

The experiment has as its target human ether-à-go-go-related gene (hERG) potassium channel (human, UniProt Q12809). Briefly: primary screen, population patch clamp on CHO cells stably expressing hERG.
On to `CC(=O)C1=C(c2ccccc2)NC(=O)NC1c1ccccc1OCC#N` (stereo not shown), for which the “hERG current change (%, negative = inhibition) at 1uM” value worked out at 7.7%. For the compound `Cc1cccc(N2CCN(C(=O)CCC(=O)N3CC(C)Oc4ccc(C)cc43)CC2C)c1` (stereo not shown), the “hERG current change (%, negative = inhibition) at 1uM” value was 3.65%. Take `CCCOc1ccc(CN(CCO)CCO)cc1[N+](=O)[O-].Cl`: the “hERG current change (%, negative = inhibition) at 1uM” value is given as 0.763%. On to `COc1ccc(C)cc1S(=O)(=O)Nc1ccccc1`, for which the “hERG current change (%, negative = inhibition) at 1uM” value is 2.08%.

As for `COc1ccc(C(C)=O)cc1COC(=O)c1cccnc1SC`, the “hERG current change (%, negative = inhibition) at 1uM” value is reported as 5.55%. For the compound `CC(C)Cn1c(=S)[nH]c2ccccc2c1=O`, the “hERG current change (%, negative = inhibition) at 1uM” value was 10.7%. Then `CCC(C)N1C(=O)CCC1C(=O)N1CCN(c2ccc(F)cc2)CC1` (stereo not shown), with -11.1%. For `CC(=O)/C(=N/Nc1cccc(C)c1)N1CCOCC1.Cl` the value was 5.2%; for `CCOC(=O)CSc1nc2cc(OCC)ccc2cc1C#N`, 10.7%; for `CCCC(=O)c1ccc(N2CCN(C(=O)c3ccccc3)CC2)c(F)c1`, -23.1%. For `Cc1ccc(C)c(NC(=S)NC(NC(=O)/C=C/c2ccccc2)C(Cl)(Cl)Cl)c1` (stereo not shown), the “hERG current change (%, negative = inhibition) at 1uM” value came to 7.55%. Take `Cc1ccc(-c2csc(NC(=O)C3CC=CCC3C(=O)O)c2C(=O)OC(C)C)cc1` (stereo not shown): the “hERG current change (%, negative = inhibition) at 1uM” value came to 4.06%. Consider `COc1ccc(S(=O)(=O)N2CCN(CC(=O)N3CCc4ccccc4C3)CC2)cc1OC`, for which the “hERG current change (%, negative = inhibition) at 1uM” value worked out at 13.2%. For `Cc1ccccc1N1CC(C(=O)Nc2nnc(SCc3cccnc3)s2)CC1=O` (stereo not shown) the value was -6.39%; for `COc1ccccc1CC(=O)Nc1cc(Cl)ccc1O`, 1.15%; for `COC(=O)C1=CN(CCCN2CCCC2=O)C=C(C(=O)OC)C1c1ccccc1C(F)(F)F`, -10.1%.

Turning to `CN(C(=O)Cc1csc(-c2ccccc2)n1)c1c(N)n(Cc2ccccc2)c(=O)[nH]c1=O`, the “hERG current change (%, negative = inhibition) at 1uM” value amounted to 9.36%. For `Cc1ccc(OCc2ccc(C(=O)Nc3nc4ccccc4n3C)o2)c([N+](=O)[O-])c1` the value was 19.9%; for `CCN(CC(=O)Nc1ccc(OC)cc1)C(=O)c1cc(-c2cccs2)nn1-c1ccccc1`, 8.42%. Regarding `CN(C)C(=O)Oc1ccc(-c2cn3cc(Cl)ccc3n2)cc1`, the “hERG current change (%, negative = inhibition) at 1uM” value amounted to 11.4%. Then `O=C(c1ccccc1Cl)N1CCC(n2cccc2)CC1`, with 7.5%; and `COC(C(=O)Nc1ccccc1F)c1ccccc1` (stereo not shown), with 10.5%. Then `COCCNC(=O)C(=O)N/N=C(\C)CC(=O)Nc1ccc2c(c1)OCO2`, with 17.6%; and `CC1(C)NC(=O)N(CC(=O)Nc2nc(-c3ccc(F)cc3)cs2)C1=O`, with 0.98%; and `COc1cccc2c1OC1(C)CC2N(C(=O)c2ccco2)C(=S)N1c1ccc(F)cc1` (stereo not shown), with 10.6%. On to `O=C(NNC(=S)NC1CCCCC1)c1ccccc1O`, for which the “hERG current change (%, negative = inhibition) at 1uM” value is recorded as 7.32%.

As to `CCOc1ccc(CN2CCNC(=O)C2CC(=O)NCC2CCOCC2)cc1` (stereo not shown), the “hERG current change (%, negative = inhibition) at 1uM” value is 7.4%. For `O=C(O)c1cccc(Cn2c(Cl)c(/C=N/NC(=O)c3ccccc3)sc2=O)c1` the value was 17.5%; for `O=C1NC(=Nc2cccnc2)S/C1=C\c1cccc(F)c1`, 4.36%; for `Cc1ccc(/C=N/OC(=O)c2c(C)noc2-c2snnc2C)cc1`, 12.3%. Then `CCOCCn1c(SC)nc2c1c(=O)[nH]c(=O)n2C`, with 12.8%.

With `CSc1nnc(N2C(=O)C(O)=C(C(=O)c3ccco3)C2c2ccc(F)cc2)s1` (stereo not shown), the “hERG current change (%, negative = inhibition) at 1uM” value was found to be 10%.

Consider `CCN(c1ccccc1)S(=O)(=O)c1cccc(C(=O)NCc2ccccc2CN2CCOCC2)c1`, for which the “hERG current change (%, negative = inhibition) at 1uM” value is given as -2.79%. Turning to `COc1ccc(COC(=O)C2=C(C)NC(=O)NC2c2cccc(Br)c2)cc1` (stereo not shown), the “hERG current change (%, negative = inhibition) at 1uM” value is on record as 8.58%.

Take `O=C(Cn1c(NCCO)nc2ccccc21)NCC(F)(F)F`: the “hERG current change (%, negative = inhibition) at 1uM” value was 14.3%. For `CN(C)S(=O)(=O)NCCNC(=O)c1cc(OCC(F)(F)F)ccc1OCC(F)(F)F`, the “hERG current change (%, negative = inhibition) at 1uM” value was 25.3%.

Consider `CCOc1ccccc1NC(=S)NCc1ccccc1`, for which the “hERG current change (%, negative = inhibition) at 1uM” value is listed as 10.4%.

As to `Cc1ccc(C)c(SCC(=O)Nc2cccc(S(=O)(=O)NC3=NCCCCC3)c2)c1`, the “hERG current change (%, negative = inhibition) at 1uM” value is given as 7.55%.

With `CCOC(=O)CSc1ccc2ccccc2n1`, the “hERG current change (%, negative = inhibition) at 1uM” value is recorded as -0.122%. For `O=C(NCc1ccccc1)c1ccc(CS(=O)(=O)Cc2ccccc2F)o1` the value was -3.56%; for `O=C(CCN1C(=O)/C(=C/C=C/c2ccccc2)SC1=S)Nc1ccccn1`, 1.91%; for `N#C/C(=C(/O)CSc1ncn[nH]1)c1nc2ccccc2[nH]1`, 9.03%. With `C/C(CCc1ccccc1)=N/NC(=O)C(=O)NC(C)c1ccccc1` (stereo not shown), the “hERG current change (%, negative = inhibition) at 1uM” value was determined as 15.7%. `O=C1NC2(CCCCC2)C(=O)N1c1ccc(Cl)cc1`: the “hERG current change (%, negative = inhibition) at 1uM” value is given as 18.9%. For `COC(=O)C1=C(c2ccc(OC(F)(F)F)cc2)C[C@@H]2CC[C@H]1N2C(=O)NC1Cc2ccccc2C1` the value was 4.27%; for `COc1cc(Br)cc(Br)c1OCC(=O)N/N=C/c1c(C)n(C)n(-c2ccccc2)c1=O`, 3.48%; for `CCOC(=O)Cn1c(=N)n(CCOc2ccc(Br)cc2)c2ccccc21.Cl`, -20.9%. For `COc1cc(C(=O)Nc2ncccc2C)ccc1OCC(=O)N1CCOCC1` the value was 12.8%; for `Cc1ccc(S(=O)(=O)NCC(=O)NCC2COc3ccccc3O2)cc1C` (stereo not shown), 6.57%. Then `Cc1ccc(-c2nc(CS(=O)(=O)CC(=O)N3CCc4ccccc4C3)c(C)o2)cc1`, with 1.96%; and `O=C1OC(c2ccc(F)cc2)=N/C1=C\C=C/c1ccccc1`, with 12.2%.

On to `C/C(=N\NC(=S)Nc1cc(S(=O)(=O)N2CCOCC2)ccc1Cl)c1ccccc1F`, for which the “hERG current change (%, negative = inhibition) at 1uM” value was 4.64%. For `CCCCn1c(N)c(N(Cc2ccccc2OC)C(=O)C(C)Oc2ccc(Cl)cc2)c(=O)[nH]c1=O` (stereo not shown) the value was 19.3%; for `Br.CC(C)(C)c1ccc(C2=CSC3=NCCN23)cc1`, -22.4%; for `CC(=O)c1c(C)[nH]c(C(=O)OCC(=O)c2c[nH]c3ccccc23)c1C`, 11.4%.
